In PubChem BioAssay AID504339 (National Center for Advancing Translational Sciences (NCATS), 2011):
Values joined by “and” are separate entries in the source; they are usually repeats but may differ in a detail not shown here. Identical values can stand only once. Hit rate of the full screen: of about 390,000 compounds, about 17,000 (4.4%) were called active. Inconclusive results, whose numbers are uncertain, are shown with a selection of clear calls. Calls follow the shape of the dose curve; as a rule, active = well fitted inhibition curve with a large enough effect; inconclusive = small, poorly fitted or top-dose-only effect; inactive = no such curve, though single readings can be large or run the other way. Where the call is inconclusive, the potency comes from a doubtful curve fit.

These compounds were tested against Lysine-specific demethylase 4A (Homo sapiens) (UniProt O75164) (assay: qHTS Assay for Inhibitors of JMJD2A-Tudor Domain). Settings: AlphaScreen JMJD2A-Tudor / H3K4me3 peptide binding; activity change, negative = inhibition: at 114 µM (top of the series).
% is scaled to controls: 0 for no effect and ±100 for the full control effect; potency is read from the fitted curve at half-maximal effect; tags tell the direction and shape of the fitted curve.
Also: nearly all actives have a fitted effect of over 50% in size.

UniProt O75164, sequence (O75164 whole entry, looked up, the tested form may be a part): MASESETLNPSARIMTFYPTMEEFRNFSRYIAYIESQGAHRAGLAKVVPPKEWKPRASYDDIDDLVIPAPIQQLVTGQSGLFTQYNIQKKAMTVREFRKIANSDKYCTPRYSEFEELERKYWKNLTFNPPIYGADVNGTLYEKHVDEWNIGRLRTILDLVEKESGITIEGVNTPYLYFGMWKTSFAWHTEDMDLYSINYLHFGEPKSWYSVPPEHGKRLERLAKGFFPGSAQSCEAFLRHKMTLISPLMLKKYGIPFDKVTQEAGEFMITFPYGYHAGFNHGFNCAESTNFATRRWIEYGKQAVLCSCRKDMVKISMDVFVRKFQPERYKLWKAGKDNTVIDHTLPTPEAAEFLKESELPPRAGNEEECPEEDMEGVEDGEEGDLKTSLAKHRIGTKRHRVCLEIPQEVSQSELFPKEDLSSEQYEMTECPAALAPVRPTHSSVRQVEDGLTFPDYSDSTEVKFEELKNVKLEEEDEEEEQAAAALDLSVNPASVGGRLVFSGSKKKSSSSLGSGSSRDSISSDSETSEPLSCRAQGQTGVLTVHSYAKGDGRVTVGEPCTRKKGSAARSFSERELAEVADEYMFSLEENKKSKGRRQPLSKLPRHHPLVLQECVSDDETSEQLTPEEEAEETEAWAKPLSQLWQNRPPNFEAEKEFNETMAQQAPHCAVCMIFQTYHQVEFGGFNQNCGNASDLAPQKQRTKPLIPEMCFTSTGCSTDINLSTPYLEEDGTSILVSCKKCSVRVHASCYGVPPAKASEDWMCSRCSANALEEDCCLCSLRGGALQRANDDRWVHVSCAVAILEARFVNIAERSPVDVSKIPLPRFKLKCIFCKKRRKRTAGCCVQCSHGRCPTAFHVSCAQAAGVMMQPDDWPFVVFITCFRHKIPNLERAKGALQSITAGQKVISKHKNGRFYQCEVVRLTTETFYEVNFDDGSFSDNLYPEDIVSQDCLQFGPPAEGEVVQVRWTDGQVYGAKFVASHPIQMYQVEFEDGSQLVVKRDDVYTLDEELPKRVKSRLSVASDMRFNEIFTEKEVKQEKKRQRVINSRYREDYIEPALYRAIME

Structure (SMILES)	Potency	activity change, negative = inhibition
O=C(O)c1ccccc1NN=C1CCCCC1	inconclusive: 100 µM [inhibitor, single point]	–
CC(=O)c1c(C)[nH]c(C(=O)OCC(=O)N(Cc2ccccc2)C(C)(C)C)c1C	inconclusive: 56.2 µM [inhibitor, partial curve]	–
O=C(NC(=S)N1CCN(c2c(Cl)cccc2[N+](=O)[O-])CC1)c1cccs1	inconclusive: 56.2 µM [inhibitor, partial curve]	–
COc1cc(CNC(=O)CSCc2nc3cccnc3n2C2CCCCC2)cc(OC)c1OC	–	inactive: -10%
O=C(NCCCN1CCCC1=O)c1sc2ccccc2c1Cl	–	inactive: -0.694%
COc1cc(/C=C(\C#N)C(=O)N2CCc3ccccc32)ccc1O	inconclusive: 56.2 µM [inhibitor, partial curve]	–
COc1cccc(NC(=O)CN(C)S(=O)(=O)c2cccs2)c1	–	inactive: -16%
CN(C)CCCn1c(SCC(=O)N2c3ccccc3Sc3ccccc32)nc2ccccc2c1=O	inconclusive: 56.2 µM [inhibitor, partial curve]	–
CN(C)CC1CC/C(=C\c2ccc(O)cc2)C1=O (stereo unspecified)	active: 89.1 µM	–
CC(c1ccccc1)n1c(-c2ccc(C(C)(C)C)cc2)n[nH]c1=S (stereo unspecified)	inconclusive: 89.1 µM [inhibitor, single point]	–
Cc1ccc(N2CCN(C(=O)c3ccccc3)CC2)c(C)c1	inconclusive: 3.98 µM [inhibitor, single point]	–
CCc1c(C)[nH]c(=S)c(C#N)c1C	active: 3.98 µM	–
COc1ccccc1NC(=S)NCCN1CCOCC1	–	inactive: 12%
CCCn1c(SCC(=O)c2c[nH]c3ccccc23)nnc1-c1ccncc1	inconclusive: 63.1 µM [inhibitor, single point]	–
CCOc1ccc(CNC(=O)Cn2ccc3cc(S(=O)(=O)N4CCCC4)ccc32)cc1	inconclusive: 17.8 µM [inhibitor, full curve]	–
CN(Cc1ccccc1)C(=O)c1ccc(NC(=O)C2=CSCCO2)cc1	–	inactive: -18.8%
COc1cc(Cl)c(NC(=O)CCc2nc3cccnc3n2-c2ccccc2)c(OC)c1	–	inactive: -29.8%
COc1ccc(Cl)cc1S(=O)(=O)N1CCC(C(=O)NCc2ccco2)CC1	–	inactive: -10.2%
COC(=O)C1Cc2ccccc2CN1C(=O)CCl (stereo unspecified)	inconclusive: 20 µM [inhibitor, partial curve]	–
O=C(NCCc1nc2ccccc2n1Cc1c(F)cccc1Cl)c1ccco1	inconclusive: 11.2 µM [inhibitor, full curve, poor fit]	–
COCCNC(=S)N(CCc1c(C)[nH]c2ccc(F)cc12)Cc1cccs1	inconclusive: 50.1 µM [inhibitor, partial curve]	–
Cc1ccc(NS(=O)(=O)c2cc3c(cc2C)OCC(=O)N3)cc1C	–	inactive: -26.2%
Cc1oc(-c2cccc(Cl)c2)nc1CN1CCC(C(=O)N2CCN(c3ccccc3F)CC2)CC1	inconclusive: 50.1 µM [inhibitor, partial curve]	–
C=CCN1C(=O)C(CC(=O)O)S/C1=N/N=C/c1ccc(N(CC)CC)cc1 (stereo unspecified)	inconclusive: 56.2 µM [inhibitor, partial curve]	–

Structure (SMILES)	Potency	activity change, negative = inhibition
O=C1c2ccccc2C(=O)C1c1ccnc2ccccc12	active: 79.4 µM	–
CC1Cc2ccccc2N1S(=O)(=O)c1cccc(C(=O)N2CCN(c3ncccn3)CC2)c1 (stereo unspecified)	–	inactive: -25.9%
O=C(CN(C(=O)c1csnn1)c1cccc2c1CCCC2)NCc1ccc(F)cc1	inconclusive: 79.4 µM [inhibitor, partial curve, poor fit]	–
N#C/C(=C\c1ccc(O)c(O)c1)C(=O)N1CCc2ccccc21	active: 15.8 µM	–
Cc1csc(CNc2ncnc3ccc(-c4ccc5c(c4)OCO5)cc23)n1	inconclusive: 89.1 µM [inhibitor, single point]	–
O=C(NCC1CCCCC1)c1cccc(-c2ccc(O)cc2)c1	–	inactive: -12.4%
CCOC(=O)C1=C(C)N(C[C@@H]2CC[C@@H](Cc3ccc(-c4ccccc4)cc3)O2)C(=O)NC1c1ccc(C(F)(F)F)cc1 (stereo partly specified)	–	inactive: -34.9%
Cc1cccc2sc(NNC(=O)c3cc(-c4cccs4)nc4ccccc34)nc12	inconclusive: 3.16 µM [inhibitor, full curve, poor fit]	–
CC(C)c1ccc(-c2noc(SCC(=O)N3CCCCC3C)n2)cc1 (stereo unspecified)	–	inactive: 39.9%
Cc1cc(OC(C)C(=O)N/N=C/CC(C)c2ccccc2)ccc1Cl (stereo unspecified)	inconclusive: 56.2 µM [inhibitor, partial curve]	–
CSCC[C@H](NC(=O)[C@@H]1Cc2ccccc2CN1)C(=O)NC(C)c1ccccc1 (stereo partly specified)	inconclusive: 44.7 µM [inhibitor, partial curve]	–
CCC(Oc1ccccc1)C(=O)Nc1ccccc1N1CCCC1 (stereo unspecified)	inconclusive: 79.4 µM [inhibitor, partial curve]	–
Cn1c(SCC(=O)Nc2ccc(Cl)cc2F)nnc1-c1ccco1	–	inactive: -13%
COC(=O)CCCCC1SCC2NC(=O)NC21O (stereo unspecified)	active: 0.891 µM	–
CCCc1cc(-c2n[nH]c(=S)n2CC)c2ccccc2n1	active: 79.4 µM	–
CCN(C(=O)COC(=O)c1[nH]c(=O)[nH]c(=O)c1N)c1ccccc1	–	inactive: -16.1%
Cc1ccc(S(=O)(=O)N2CCC(C(=O)OC(C)C(=O)N3CCOCC3)CC2)cc1 (stereo unspecified)	–	inconclusive: -48.3% [inhibitor]
CN1CCc2c(sc(NC(=O)c3ccc([N+](=O)[O-])o3)c2C(N)=O)C1	inconclusive: 50.1 µM [inhibitor, partial curve]	–
c1ccc2c(c1)SCc1nnc(-c3ccncc3)n1-2	inconclusive: 89.1 µM [inhibitor, single point]	–
NC(=O)c1c(-c2cccs2)csc1N	inconclusive: 50.1 µM [inhibitor, partial curve]	–
O=C(NC(NCc1ccccn1)(C(F)(F)F)C(F)(F)F)c1ccco1	active: 0.708 µM	–
Cc1c(OCC(=O)NCc2ccccn2)ccc2c3c(c(=O)oc12)CCCC3	active: 50.1 µM	–
COc1ccc(-n2c(Cc3cccn3C)nnc2SCC(=O)NCc2ccccc2Cl)cc1	inconclusive: 44.7 µM [inhibitor, partial curve, poor fit]	–
Cc1cc(C)cc(NC(=O)CN2CCCN(S(=O)(=O)c3ccc(Br)s3)CC2)c1	–	inactive: -8.63%

Structure (SMILES)	Potency	activity change, negative = inhibition
Cc1sc(-c2cc3ccccc3oc2=O)nc1-c1ccc(Cl)c(Cl)c1	inconclusive: 39.8 µM [inhibitor, full curve]	–
Cc1cc2c(c(C)c1CCO)C(=O)[C@H](C)C2	–	inactive: -21.8%
CCOc1ccc(-n2c(SCC(=O)Nc3ccc(OC)cc3OC)nc3c(c2=O)SCC3)cc1	inconclusive: 89.1 µM [inhibitor, single point]	–
CN1c2ccccc2C(C)(C)C12CCCC(=O)N2 (stereo unspecified)	inconclusive: 79.4 µM [inhibitor, single point]	–
Cc1ccccc1Nc1c(N)c(=O)oc2ccccc12	inconclusive: 89.1 µM [inhibitor, partial curve]	–
COc1ccc(C(CCN2CCCCC2)c2c(OC)cc(OC)c3c(-c4ccccc4)cc(=O)oc23)cc1 (stereo unspecified)	inconclusive: 25.1 µM [inhibitor, partial curve] and inconclusive: 39.8 µM [inhibitor, partial curve]	–
Cc1cc(C)cc(NC(=O)c2ccc3oc(=O)c(S(=O)(=O)c4ccc(F)cc4)cc3c2)c1	–	inactive: -16.2%
Cc1ccc(-c2nnc(Nc3ccc(C(N)=O)cc3)c3ccccc23)cc1S(N)(=O)=O	–	inactive: -0.61%
O=S(=O)(c1ccc(F)cc1)N1CN(Cc2ccco2)c2nc3ccccc3nc21	inconclusive: 56.2 µM [inhibitor, partial curve]	–
COc1ccc2[nH]c(=O)c(CN(C(=O)c3ccco3)C(C)C)cc2c1	inconclusive: 25.1 µM [inhibitor, single point]	–
CCOc1ccc(NS(=O)(=O)c2ccc(NC(=S)NC(=O)CC(C)C)cc2)cc1	inconclusive: 79.4 µM [inhibitor, single point]	–
CN1/C(=C\C=C2\N=C(c3ccc(F)cc3)OC2=O)C(C)(C)c2ccccc21	active: 56.2 µM	–
CC1(C)CC(=O)c2cc(C(=O)NC3CCSC3=O)c(=O)n(-c3ccccc3)c2C1 (stereo unspecified)	–	inactive: -7.86%
O=C1CCC(C(=O)Nc2ccccc2N2CCCC2)=NN1	inconclusive: 50.1 µM [inhibitor, partial curve]	–
COc1cc(C2/C(=C(\O)c3ccc4c(c3)OCCO4)C(=O)C(=O)N2CCN2CCOCC2)cc(OC)c1OC (stereo unspecified)	inconclusive: 28.2 µM [inhibitor, single point]	–
CN(C)c1ccc(C=Nc2ccc(N(C)C)cc2)cc1	active: 56.2 µM	–
Cc1cc(NC(=O)Nc2ccccc2[N+](=O)[O-])no1	active: 22.4 µM	–
Cc1cc(C(=O)COC(=O)c2ccc(O)cc2)c(C)n1CC1CCCO1 (stereo unspecified)	inconclusive: 79.4 µM [inhibitor, single point]	–
[O-][N+]1=c2ccc(Nc3ccccc3)cc2=NC12CCCCC2	active: 39.8 µM	–
COc1ccc(CN(Cc2cccn2C)S(=O)(=O)c2ccc(F)cc2)cc1	–	inactive: -17.9%
C#CCOCCOCCOCCNc1nc(N2CCOCC2)nc(N2CCN(C(=O)[C@H](CCCCN)n3cc([C@@H](N)CO)nn3)CC2)n1	active: 79.4 µM	–
CC(C)C[C@@H](CN)NC(=O)c1nc[nH]c1C(=O)N[C@@H](Cc1ccccc1)C(=O)CNC[C@H](C)NC(=O)c1nc[nH]c1C(=O)N[C@@H](CC(=O)O)C(=O)O	inconclusive: 89.1 µM [inhibitor, single point]	–
COc1ccccc1C(=O)N/C(=C\c1cn(C)c2ccccc12)C(=O)NCCCn1ccnc1	inconclusive: 100 µM [inhibitor, partial curve, poor fit]	–
